# From the supplement of paper PMC3334620
# The full ranking holds about 33,000 sequences; the median of “E-score (-0.5 to 0.5)” is about -0.041, and the highest 2% start at about 0.37. This is one part of the list.
# Molecular target: T1, Ecm22 (UniProt Q05958)
# T1 sequence: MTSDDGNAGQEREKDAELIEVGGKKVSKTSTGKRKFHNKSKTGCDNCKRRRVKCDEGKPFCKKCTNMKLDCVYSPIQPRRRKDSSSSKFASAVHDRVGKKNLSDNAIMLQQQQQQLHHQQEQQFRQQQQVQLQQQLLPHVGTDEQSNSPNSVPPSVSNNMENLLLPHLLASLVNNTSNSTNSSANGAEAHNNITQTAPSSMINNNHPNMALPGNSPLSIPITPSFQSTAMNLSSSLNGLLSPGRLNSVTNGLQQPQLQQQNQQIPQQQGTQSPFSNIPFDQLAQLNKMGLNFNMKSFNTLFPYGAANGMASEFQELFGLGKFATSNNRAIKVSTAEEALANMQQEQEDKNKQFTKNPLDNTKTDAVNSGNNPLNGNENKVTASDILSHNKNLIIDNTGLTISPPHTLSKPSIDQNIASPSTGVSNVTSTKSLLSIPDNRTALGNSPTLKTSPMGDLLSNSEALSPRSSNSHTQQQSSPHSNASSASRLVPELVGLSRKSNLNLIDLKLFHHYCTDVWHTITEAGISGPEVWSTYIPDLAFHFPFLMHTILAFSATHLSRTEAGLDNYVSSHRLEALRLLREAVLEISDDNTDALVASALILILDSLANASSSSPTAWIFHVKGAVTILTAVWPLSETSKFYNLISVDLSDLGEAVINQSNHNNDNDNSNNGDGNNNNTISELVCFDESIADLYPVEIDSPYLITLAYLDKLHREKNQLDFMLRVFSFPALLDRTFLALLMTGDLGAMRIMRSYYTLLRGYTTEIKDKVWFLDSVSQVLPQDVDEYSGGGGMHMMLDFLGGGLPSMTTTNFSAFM
# Experiment: PBM E-score (8-mer binding enrichment) (E-score (-0.5 to 0.5)); higher = stronger / more preferred TF binding; most listed sequences are background and not binding sites
# Conditions: protein concentration: 200 nM; construct: GST-full length
# Description: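 Universal 'all 10-mer' protein binding microarrays (Agilent AMADID 015681) probed with GST-tagged S. cerevisiae TFs (full-length or DBD) made by in vitro transcription/translation (PURExpress), about 100-200 nM. Bound TF was detected with fluorescent anti-GST. Each ungapped 8-mer (which stands for itself and its reverse complement) is scored by the PBM enrichment score (E-score), a modified Wilcoxon-Mann-Whitney statistic from -0.5 to +0.5, computed with the Universal PBM Analysis Suite. Scale: above 0.35 generally sequence-specific binding.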
row,Sequence,PBM E-score
1,CTGTCAAA,-0.0479
2,GTCACACA,-0.0919
3,ACTACTAT,0.095
4,GATGGCGC,-0.132
5,CGTGGATC,-0.0292
6,ACCTCGGA,0.166
7,AAGCGAGA,0.247
8,GCGGCACA,-0.0267
9,GACCCGGC,-0.0318
10,GGTTCGGA,-0.1
11,CACGTTGA,-0.114
12,ATTTAACC,-0.107
13,GTTTAGCA,0.088
14,ATGAGCGA,0.358
15,AGCAAACG,0.266
16,TCTACAGA,-0.0733
17,ATGGGATG,-0.251
18,ACCTAAGG,-0.238
19,ATTTTCGC,0.00272
20,CTGGCACA,-0.184
21,CAAATGAC,-0.269
22,AATAGCAC,-0.111
23,GCGTAGTA,-0.127
24,GTCATCAA,-0.114
25,AACTCAAC,-0.0436

row,Sequence,PBM E-score
1,GCCAGGCC,-0.0366
2,CACTTGTC,-0.00196
3,GGGCTTTA,-0.156
4,ACGCTGAA,0.176
5,AAGACCGT,0.00154
6,CTTATGGC,-0.113
7,GTCCAACA,-0.042
8,TAACTCCA,-0.121
9,GCGCCTCC,-0.0784
10,CTAGCCGA,0.0211
11,CTCGCTGC,0.0374
12,AGTCCCGA,-0.11
13,AGTTAGGC,-0.0269
14,AACGTCAT,0.0448
15,AGCATCAA,-0.129
16,ACGTCCGG,-0.155
17,ACATTACT,-0.165
18,GAGTAATA,0.0346
19,AGACTCTC,-0.0739
20,CCATTAAC,-0.109
21,TCGTGGAA,0.116
22,AAGAAGCC,-0.0728
23,CGAGATTA,0.236
24,CTTCACAC,0.0546
25,AGGTTCAA,-0.0733

row,Sequence,PBM E-score
1,ATAGTAGG,-0.113
2,CTGTGCGC,-0.0884
3,TACCTAAA,-0.0575
4,GGGCGGAC,-0.247
5,GTTGAAAC,0.0017
6,ATAACTGA,0.0764
7,TGGCACAA,-0.212
8,CATCTGCG,0.0576
9,AGTTGAAA,-0.146
10,CGTTTTGA,0.112
11,CCAGTGGA,-0.248
12,CCGACAAG,0.0206
13,CCCTCTCC,-0.358
14,ATATGTGA,-0.133
15,AGATGCGA,0.265
16,CTCCGGGA,-0.102
17,CCAAGAGA,-0.261
18,CGTTGGTC,-0.0184
19,CCTTTCGC,0.047
20,CACCGTAG,0.0943
21,ACTCCTAT,-0.0305
22,CGGGTACA,0.157
23,CGCCCGCG,-0.0317
24,ACCTTCAA,-0.226
25,ACGAGCAC,0.346

row,Sequence,PBM E-score
1,CAAGTCGC,-0.00243
2,CCATCTCA,-0.275
3,AGAAATTG,0.107
4,CTACTCTC,-0.116
5,GGCCTATA,0.0269
6,CCATCGCA,0.0116
7,AGTGCGGC,-0.157
8,AATTTTAG,0.0173
9,ATACGCTC,0.304
10,GCCAAGCA,-0.249
11,ATAGCCCC,-0.223
12,CCATCAAA,-0.0424
13,CAGATCAA,-0.191
14,GTATCATA,0.303
15,CGGTGAAG,0.0375
16,ACGTCAGA,-0.121
17,CTGGACTC,-0.0942
18,AAGCCTTC,-0.294
19,AGTGGGAT,0.0345
20,CCTTCCCA,-0.134
21,AAGACCCA,-0.276
22,CTAATACA,-0.226
23,GCACACGC,-0.172
24,AAATAACA,-0.0111
25,CCAGAAGC,-0.191

row,Sequence,PBM E-score
1,GATACGGC,0.32
2,TAATCTAA,-0.0311
3,CCAACGAA,0.0596
4,CTGAACCC,0.0346
5,GCGACAAC,0.178
6,AAGTAACC,-0.122
7,GAAGTTCC,-0.143
8,GTACTCCA,-0.0378
9,GAATTCTA,-0.00562
10,CCTCATTC,-0.203
11,TAGACCGA,0.175
12,ATGCGTCA,0.0653
13,GCCTAATA,-0.0452
14,ATCGTATG,0.438
15,CTATAAAA,0.0168
16,CCACAAGA,-0.185
17,CACGACAC,0.147
18,CCGGCGGC,-0.134
19,AGACACAC,-0.0414
20,GGATAAAA,-0.0296
21,ATAGCATG,-0.166
22,ATGTTGTC,0.0281
23,CGAACCCC,0.0698
24,AGGTGCGC,0.044
25,AGGGGCAC,-0.183

row,Sequence,PBM E-score
1,GTCCGAAC,0.0257
2,CGCGTATA,0.403
3,CGGATTAA,0.139
4,CCGTGGAC,-0.162
5,CACAAACG,0.327
6,AGTGGACA,-0.199
7,AGTTCAGG,-0.0568
8,CGGGATAA,0.0993
9,CACCTCCG,-0.261
10,CGAATTTC,0.121
11,CACTAGAA,-0.144
12,CCTTTGGC,-0.333
13,ATCTAGCG,-0.0546
14,AACAACTA,-0.142
15,TCCAGCGA,-0.115
16,GCAACTAC,-0.105
17,CGAGGAGC,0.265
18,CACGGGCC,-0.287
19,TAGAACAA,-0.216
20,GTTACCGA,0.151
21,CTCTATGC,-0.0553
22,CACGACTA,-0.0786
23,GCTAGCCA,-0.313
24,ACAGCCAT,0.033
25,AGTTCGAT,-0.0764

row,Sequence,PBM E-score
1,AATGGGGG,-0.268
2,AACTCCGT,0.00479
3,AAGAAAGC,0.0234
4,AGGCAACT,-0.02
5,TATCCTCA,0.0979
6,AAGGGACC,0.051
7,AACGAAAT,0.4
8,ACAACACA,0.0689
9,CAACCGAA,0.185
10,ACGGTAAG,0.228
11,GCGGGTAC,0.179
12,AGAATGGC,-0.137
13,TCATCGCA,0.162
14,AGGGAGTG,-0.178
15,AGCACGTG,0.106
16,AATAGTGA,-0.151
17,AGAGGCAG,-0.122
18,ACTAGCCC,-0.266
19,CCTCATAG,-0.183
20,AACTGTAT,-0.00739
21,CCAGGAAG,-0.204
22,GCTAGTAC,0.059
